# Some of the results follow.
# Key:
# Experiment in all cases: glycan array binding signal (z-score within array); higher = stronger binding
# Settings in all cases: glycan notation: IUPAC condensed, linker removed
# [1] = molecular target: Neu5Ac(a2-6)GlcNAc(b1-4)GlcNAc
# Method in brief: (§1)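 The Consortium for Functional Glycomics database supplied 3228 glycan arrays, of which those lacking an available protein sequence were dropped. The binding signal, a within-array Z-score, was averaged across arrays of the same protein sequence and across linkers. Negative scores can be read as non-binding.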
# [2] = molecular target: Neu5Ac(a2-6)GlcNAc(b1-4)GlcNAc(b1-4)GlcNAc
# Method in brief: as §1
# Neu5Ac(a2-8)Neu5Ac = molecular target: Neu5Ac(a2-8)Neu5Ac
# Method in brief: as §1
# [3] = molecular target: Neu5Ac(a2-8)Neu5Ac(a2-3)Gal(b1-3)GalNAc(b1-4)[Neu5Ac(a2-3)]Gal(b1-4)Glc
# Method in brief: as §1
# [4] = molecular target: Neu5Ac(a2-8)Neu5Ac(a2-3)Gal(b1-3)GalNAc(b1-4)[Neu5Ac(a2-8)Neu5Ac(a2-3)]Gal(b1-4)Glc
# Method in brief: as §1
# [5] = molecular target: Neu5Ac(a2-8)Neu5Ac(a2-3)Gal(b1-4)Glc
# Method in brief: as §1
# [6] = molecular target: Neu5Ac(a2-8)Neu5Ac(a2-3)Gal(b1-4)GlcNAc
# Method in brief: as §1
# [7] = molecular target: Neu5Ac(a2-8)Neu5Ac(a2-3)[Gal(b1-3)GalNAc(b1-4)]Gal(b1-4)Glc
# Method in brief: as §1
# [8] = molecular target: Neu5Ac(a2-8)Neu5Ac(a2-3)[GalNAc(b1-4)]Gal(b1-4)Glc
# Method in brief: as §1
# [9] = molecular target: Neu5Ac(a2-8)Neu5Ac(a2-8)Neu5Ac
# Method in brief: as §1
# [10] = molecular target: Neu5Ac(a2-8)Neu5Ac(a2-8)Neu5Ac(a2-3)Gal(b1-4)Glc
# Method in brief: as §1
# [11] = molecular target: Neu5Ac(a2-8)Neu5Ac(a2-8)Neu5Ac(a2-3)[Gal(b1-3)GalNAc(b1-4)]Gal(b1-4)Glc
# Method in brief: as §1
# [12] = molecular target: Neu5Ac(a2-8)Neu5Ac(a2-8)Neu5Ac(a2-3)[GalNAc(b1-4)]Gal(b1-4)Glc
# Method in brief: as §1
# [13] = molecular target: Neu5Ac(a2-8)Neu5Ac(a2-8)Neu5Ac(a2-8)Neu5Ac(a2-3)[GalNAc(b1-4)]Gal(b1-4)Glc
# Method in brief: as §1
# [14] = molecular target: Neu5Ac(a2-8)Neu5Gc(a2-3)Gal(b1-4)GlcNAc
# Method in brief: as §1
# [15] = molecular target: Neu5Ac(b2-6)Gal(b1-4)GlcNAc
# Method in brief: as §1
# Neu5Ac(b2-6)GalNAc = molecular target: Neu5Ac(b2-6)GalNAc
# Method in brief: as §1
# [16] = molecular target: Neu5Ac9Ac(a2-3)Gal(b1-3)GlcNAc
# Method in brief: as §1
# [17] = molecular target: Neu5Ac9Ac(a2-3)Gal(b1-4)GlcNAc
# Method in brief: as §1
# [18] = molecular target: Neu5Ac9Ac(a2-6)Gal(b1-4)GlcNAc
# Method in brief: as §1
# [19] = molecular target: Neu5Gc(a2-3)Gal(b1-3)GlcNAc
# Method in brief: as §1
# [20] = molecular target: Neu5Gc(a2-3)Gal(b1-3)[Fuc(a1-4)]GlcNAc
# Method in brief: as §1
# Neu5Gc(a2-3)Gal(b1-4)Glc = molecular target: Neu5Gc(a2-3)Gal(b1-4)Glc
# Method in brief: as §1
# [21] = molecular target: Neu5Gc(a2-3)Gal(b1-4)GlcNAc
# Method in brief: as §1
# [22] = molecular target: Neu5Gc(a2-3)Gal(b1-4)GlcNAc(b1-3)Gal(b1-4)GlcNAc(b1-2)Man(a1-3)[Neu5Gc(a2-3)Gal(b1-4)GlcNAc(b1-3)Gal(b1-4)GlcNAc(b1-2)Man(a1-6)]Man(b1-4)GlcNAc(b1-4)GlcNAc
# Method in brief: as §1
# [23] = molecular target: Neu5Gc(a2-3)Gal(b1-4)[Fuc(a1-3)]GlcNAc
# Method in brief: as §1
# [24] = molecular target: Neu5Gc(a2-6)Gal(b1-4)GlcNAc
# Method in brief: as §1
# Neu5Gc(a2-6)GalNAc = molecular target: Neu5Gc(a2-6)GalNAc
# Method in brief: as §1
# [25] = molecular target: Neu5Gc(a2-8)Neu5Ac(a2-3)Gal(b1-4)GlcNAc
# Method in brief: as §1
# [26] = molecular target: Neu5Gc(a2-8)Neu5Gc(a2-3)Gal(b1-4)GlcNAc
# Method in brief: as §1
# [27] = molecular target: Neu5Gc(a2-8)Neu5Gc(a2-3)Gal(b1-4)GlcNAc(b1-3)Gal(b1-4)GlcNAc
# Method in brief: as §1
# [28] = molecular target: Neu5Gc(a2-8)Neu5Gc(a2-6)Gal(b1-4)GlcNAc
# Method in brief: as §1
# [29] = molecular target: Neu5Gc(b2-6)Gal(b1-4)GlcNAc
# Method in brief: as §1
binder,measurement,setting,value
Epa1to9 (Candida glabrata) (protein) MGSSHHHHHHSSGLVPRGSHMTSSNDISLASKDPTTFPLGCSPDITTPKKGLSMELYSYDFRKKGSYPCWDAAYLDPNYPRTGYKSHRLLAKVDGVTGNINFYYHATKGCTPQLGHLPASYNYPKPLTMTNFTMLLYGYFRPKVTGFHTFTISADDLLFVNFGAGNAFDCCRRDSSADHFGNYQAYAIWGSKTAKDELTVHLDAGVYYPIRLFYNNRDYHGALSFTFKTESNENTVSDFSEYFFSLDDTEEGCPGLISYD,glycan array binding signal (z-score),[1],-0.35
same,glycan array binding signal (z-score),[2],-0.39
same,glycan array binding signal (z-score),Neu5Ac(a2-8)Neu5Ac,-0.538
same,glycan array binding signal (z-score),[3],-0.265
same,glycan array binding signal (z-score),[4],0.235
same,glycan array binding signal (z-score),[5],-0.346
same,glycan array binding signal (z-score),[6],-0.348
same,glycan array binding signal (z-score),[7],1.1
same,glycan array binding signal (z-score),[8],-0.393
same,glycan array binding signal (z-score),[9],-0.358
same,glycan array binding signal (z-score),[10],-0.406
same,glycan array binding signal (z-score),[11],-0.306
same,glycan array binding signal (z-score),[12],-0.353
same,glycan array binding signal (z-score),[13],-0.355
same,glycan array binding signal (z-score),[14],-0.342
same,glycan array binding signal (z-score),[15],-0.338
same,glycan array binding signal (z-score),Neu5Ac(b2-6)GalNAc,-0.346
same,glycan array binding signal (z-score),[16],-0.345
same,glycan array binding signal (z-score),[17],-0.35
same,glycan array binding signal (z-score),[18],-0.264
same,glycan array binding signal (z-score),[19],-0.334
same,glycan array binding signal (z-score),[20],-0.343
same,glycan array binding signal (z-score),Neu5Gc(a2-3)Gal(b1-4)Glc,-0.348
same,glycan array binding signal (z-score),[21],-0.346
same,glycan array binding signal (z-score),[22],-0.346
same,glycan array binding signal (z-score),[23],-0.326
same,glycan array binding signal (z-score),[24],-0.291
same,glycan array binding signal (z-score),Neu5Gc(a2-6)GalNAc,-0.354
same,glycan array binding signal (z-score),[25],-0.338
same,glycan array binding signal (z-score),[26],-0.345
same,glycan array binding signal (z-score),[27],-0.341
same,glycan array binding signal (z-score),[28],-0.293
same,glycan array binding signal (z-score),[29],-0.335
